B1: LINE1-mini (parent)
chain: GGCAGAGCUCAACACAGCGUGGCAAAGUGGCUGUGGCUAGACUGCC

Read counts are not given, so values of variants with three or more changes are uncertain.

Variants of B1 are the subject of this data set. In words: self-cleavage, relative activity (ratio to wild type); higher = more cleavage; in vitro, sequencing; the parent is a self-cleaving ribozyme.
Consider A4C C15G A24G G27C G30U, for which the self-cleavage amounted to 0.01. Take A4C C15A G29U: the self-cleavage is 0.08. Consider A4G A16G U38C, for which the self-cleavage stood at 0.02. Under A4C C15G A24C A26U A39U stands 0.02; under A4C G29A G33U C46A, 0.03; under A4G A16U C18G, 0.06. Then A4G C8U A11G C13G G29U C31A G40A C42U, with 0. As to A4G A16G G27A U38A, the self-cleavage worked out at 0.2. Under A4C G29U C31U C45U stands 0.04. As to A4C G5U C18A G27C G30A U43C, the self-cleavage was 0.07. Then A4C G7C G30C, with 0.09; and A4C U9G G44U, with 0.03; and A4G C8U G30U C37U C42G, with 0.15. Then A4G C8U U20C C31U U38A, with 0.11; and A4C C31U C37A U43A G44C, with 0; and A4G A11C G19A G21A G22A A25C, with 0.04. Then A4G C8U C23U G30C C42U, with 0.33; and A4C G5U A16G U43C G44U, with 0.02; and A4C C13U A41U, with 0.24. Turning to A4C U9C C13G C15U G17C U20G, the self-cleavage was 0.01. With A4C C15U C37U, the self-cleavage was 0.05.

Regarding A4C C13G C42G C46G, the self-cleavage turned out to be 0.02.

In the case of A4G A24C U32G, the self-cleavage is 0.02.

A4C G7C A26C G30A G44A: the self-cleavage turned out to be 0.24.

On to A4C U9G U20C C42G, for which the self-cleavage came to 0.03. Then A4C G5C C10G, with 0.01. Under A4G C10A A12U C15U G35A stands 0.05.

As for A4G A14U U20A G44A, the self-cleavage was determined as 0.01.

Regarding A4C G17A G30C C37A, the self-cleavage stood at 0.04.

Take A4C C37A C42U: the self-cleavage is 0.26. Then A4C G27U C37U, with 0.13. Under A4G C8A G17U G22C A25U stands 0.29; under A4G A12U A14U, 0.13; under A4C G17A G29U, 0.05. Under A4C C15A A26C G35A C46A stands 0.03; under A4C U28A G35C A41G, 0.05.

For the variant A4G A39G C46A, the self-cleavage was determined as 0.01. For the variant A4C G7U A11C A14G G17U G22A G30U G36A, the self-cleavage turned out to be 0.02.

Turning to A4C G5C A16G, the self-cleavage amounted to 0.09.

Regarding A4G A6G C10U A25C, the self-cleavage came out at 0.

For A4C G29A G30U G35C, the self-cleavage was 0.74. As to A4G A26C C45G, the self-cleavage was 0.31.

A4G A12U C23U A41G: the self-cleavage came to 0.1. Under A4G C8A U20G C23U G27C C37G C45U stands 0; under A4G A14G C15G C18U G30U C31A C42G, 0.43. Under A4C C23U G35U C46A stands 3. Under A4C G21U U38A A39G C42G stands 0.03; under A4C G21A A24C C42U, 0.04.

Regarding A4G A6C G29U C37U, the self-cleavage came out at 0.11. Then A4C G5A G22A, with 0.05.

Turning to A4G A12C C15A G19U U20C C31A, the self-cleavage was 0.01. Then A4C G5U C15A G17U A39G, with 0.02; and A4G C8U G17C G19A, with 0.14; and A4C G5U C31A G40A C42U, with 0.08. Then A4C G30U U34G A41C C45G, with 0.11. Under A4C U38G C42A stands 0.07. In the case of A4G A11C A14U U20C, the self-cleavage amounted to 0.07. For the variant A4G A12G U32A, the self-cleavage was determined as 0.08.

On to A4C G33C G36C A39C, for which the self-cleavage was found to be 0. For the variant A4C G17U U32A G33A, the self-cleavage was determined as 0.1. Then A4G A12C G29A C42U, with 0.12; and A4C C37U A41C C42A, with 0.05. Then A4C G7A C10A C18A A41C, with 0.07; and A4G C8G G17A C31A U34C, with 0.02. In the case of A4C G7A A41C G44C, the self-cleavage amounted to 0.19. Consider A4C G7A C23U G29U G30U G35A G44U, for which the self-cleavage was 0.39. Then A4C G36C U43C C45U, with 0.06.

Consider A4G C8U A25U G44U, for which the self-cleavage worked out at 0.06. With A4C G5A A24C, the self-cleavage came to 0.

In the case of A4C G17C C31U C42G, the self-cleavage is 0.01. Then A4G A11G G35A, with 0.02; and A4C G17A C23G G35U, with 0.25. Under A4G A6G C13G A25C C37A A39U stands 0.02. Under A4G A6C C18U C46A stands 0.2; under A4G A11G C15A U34A, 0.01; under A4C G5C A41U, 0.

On to A4C G19U A25G G27C G30C, for which the self-cleavage was 0.65. Then A4C U28A U32C G33U, with 0.03. As for A4G C8G C31G, the self-cleavage is 0.06.

As to A4C G21U C46A, the self-cleavage is 0.36. A4C C15G G19A A39G: the self-cleavage worked out at 0.03.

For A4G A14C U20A G33C G35A C42A, the self-cleavage turned out to be 0.03. Under A4C G22A C31U stands 0.08; under A4C G5U C10A A12G, 0. Under A4G C8U A16U A39C G44A stands 0.08; under A4C U28A C37A C46G, 0.04. Then A4C C13A G29C, with 0.13; and A4C C15A G17C G21U C31G C42A, with 0.09. Consider A4C U28A G36C C45G, for which the self-cleavage was found to be 0.11. Under A4G C8U A11U G44A C45U stands 0.02; under A4C U9A G35A, 0.04; under A4C G29A C46U, 0.47. Under A4G A6C C10G G40U stands 0.01; under A4C G27C U28C C31U C37G, 0.04. Under A4C G17A C37U stands 0.09. Consider A4C C45A C46U, for which the self-cleavage worked out at 0.1. Then A4C U9G C13U G36U C46U, with 0.04. Then A4G A6C C23G, with 0.02. With A4G A14U A39C, the self-cleavage came to 0.07. Under A4G C8U C46A stands 0.45; under A4C G22U A41U, 0.56. For the variant A4G A16U G17A A25C C46G, the self-cleavage turned out to be 0.04. Then A4G A6G C23U G27U G40U, with 0.06. Take A4C G21C G36C: the self-cleavage worked out at 0.02.

As for A4G A6U G30U, the self-cleavage is 0.45. Regarding A4C C15G G21A G27C, the self-cleavage was determined as 0.07. Under A4C U9C C10A A11U C13A G17C U28G U34C G35A stands 0.01; under A4C G5C A24U G29C G44U, 0.08; under A4G A6C C8G C13A G27U U38G, 0.02.

As to A4G A16G G22U C45U, the self-cleavage is 0.88. On to A4G A12G A14G C18U, for which the self-cleavage was 0.27. Then A4G A14C A25G G35U A39U, with 0.18; and A4C G17C G40A, with 0.07. Then A4C C18A U20G, with 0.08; and A4C U34C C45U, with 0.15; and A4G A25C C31G, with 0.13. A4C G19U C23U G27C A41G: the self-cleavage is 0.07. Under A4C U9C G29C stands 0.04; under A4C G19U U34A, 0.03. Then A4G A25C U43A C45A, with 0.02; and A4G A14G C18G, with 0.03. Take A4C G7C A39U: the self-cleavage stood at 1.52.

Consider A4C C13U G17C, for which the self-cleavage came to 0.09.

On to A4C G5U A16C C23U G35A, for which the self-cleavage was found to be 0.08. Under A4G A6U U43A C45A stands 0.09; under A4C C13U U32G, 0.09.

Take A4G A6G C8A A14C C42G: the self-cleavage worked out at 0.04. With A4C G7A G35C G36C, the self-cleavage amounted to 0.02. For A4C C23A G36U U38A, the self-cleavage stood at 0.03. Then A4C G30A G35U, with 0.11; and A4C C31U G44U C45A, with 0.02; and A4C G19C G30A, with 0.03. Then A4C G27A G36C C42A, with 0.18; and A4C G29U C37U A41C, with 0.03. Under A4G C8A A16G G33A G35C G40C stands 0.02; under A4C C18U G27U C42U C46A, 0.38. Regarding A4G A6C C10A G22A G36U, the self-cleavage amounted to 0.01. Under A4C G19A U32C G36A stands 0.06; under A4G A6U G29C G30A G40A, 0.2; under A4C G7U A12C C31A, 0.01.

For A4G A11G G19A A25C U38A A39C, the self-cleavage turned out to be 0. As to A4C G7C C13U G30U C37A, the self-cleavage stood at 0.33.

As to A4G C8G U9G C10G G29A C42G, the self-cleavage was determined as 0.01. Then A4C C13G A14G C18A A24G G35C U43A, with 0.01; and A4C G36U U43A, with 0.35; and A4G C10A A11U G19C C23A G29U C31A A39C, with 0. Under A4C G30C G33U C42A stands 0.12; under A4G C8A G17C, 0.05; under A4G A14G U34A, 0.06.

Consider A4C G17C G30U C37U G40C, for which the self-cleavage came to 0.2. Under A4G C8G G22A stands 0.02; under A4C C15U A41C C46U, 0.01.

Turning to A4C G5A G27A C37U, the self-cleavage was found to be 0.04. For the variant A4C C23G G35A G36U A39C, the self-cleavage was 0.26. Under A4C C15U G19U stands 0.03; under A4G A11C C31U A41C, 0.02. A4C U32C G44A: the self-cleavage stood at 0.04. Under A4G A11G C18U stands 0.07; under A4G C8G A25G U28C G29C, 0.01; under A4C G21A A24C G30A, 0.03. Under A4C G5A G29U stands 0.06; under A4C C31A C46U, 0.01. Then A4G C8A A14C G21A G30A C46A, with 0.11; and A4C G27C G40C, with 0.09.

Take A4G A14G G22U C31G U38A: the self-cleavage stood at 0.14. Then A4C G22A G40C, with 0.14; and A4G C8U A12C C45A, with 0.02.

Source of the values: the RNAGym collection of RNA variant scans (doi:10.7554/elife.90254).
